Assay results published in PubChem BioAssay AID1347417 (National Center for Advancing Translational Sciences (NCATS), 2020).
Hit rate of the full screen: of about 120,000 compounds, about 5,300 (4.4%) were called active. The inconclusive results got no clear call from the source; some entries with a clear call stand among them for comparison. Calls come from the whole dose curve; as a rule, active = well fitted inhibition curve with a large enough effect; inconclusive = small, poorly fitted or top-dose-only effect; inactive = no such curve, though single readings can be large or run the other way. Potencies of inconclusive entries are doubtful fits and often do not repeat.
Potency is the fitted concentration of half-maximal effect; tags give direction and shape of the fitted curve.

Test: qHTS Primary assay for Inhibitors of Plasmodium falciparum Dd2 growth in vitro; note: nearly all actives have a fitted effect of over 65% in size
Settings: P. falciparum Dd2 growth, SYBR Green, 72 h; series mostly up to 28.9 µM
In short: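 Readout: SYBR Green fluorescence, 485 nm excitation, 535 nm emission, after ~16 h lysis at 37C. Before that, Dd2-infected red cells (2.5% hematocrit) grew 72 h with compound, 29 uM top final concentration.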
With `CCOC(=O)C1CCN(C(=O)c2ccc(-c3ccc(N4CCCCCC4)nc3)cc2)CC1` the Potency was inconclusive: 2.51 µM [inhibitor, partial curve, poor fit]. In the case of `COc1cc(F)ccc1-c1nc(-c2c(C)noc2C)cc2[nH]c(C)cc12`, the Potency is reported as inconclusive: 1 µM [inhibitor, full curve]. For `COc1cc(C)ccc1OCCSc1nc2ccc(NC(=O)c3ccccc3F)cc2s1`, the Potency was inconclusive: 20 µM [inhibitor, single point]. For `COc1ccc(CC(=O)N2Cc3ccccc3CC3(CCCCN3C)C2)cc1` (stereo not given), the Potency was inconclusive: 11.2 µM [inhibitor, partial curve]. In the case of `COc1ccc(CN(C)C2CCc3nn(C)c(=O)n3CC2)cc1Cn1cccn1` (stereo not given), the Potency is reported as inconclusive: 0.501 µM [inhibitor, full curve, poor fit]. In the case of `Cc1ccc(-c2nc(CN3CCCC3=O)no2)cc1`, the Potency is reported as inconclusive: 0.199 µM [inhibitor, full curve, poor fit]. In the case of `CN(C)c1cccc(-c2cnc(Nc3ccncc3)c3c2CCO3)c1`, the Potency is reported as inconclusive: 10 µM [inhibitor, partial curve, poor fit]. In the case of `Cn1cc(C(=O)N2CCC3(CCN(C4CCOCC4)CC3)C(CO)C2)cn1` (stereo not given), the Potency is reported as inconclusive: 3.98 µM [inhibitor, single point]. In the case of `CCC(CC)NC(=O)C1Cn2cccc2C(=O)N1Cc1cccnc1` (stereo not given), the Potency is reported as inconclusive: 10 µM [inhibitor, partial curve, poor fit]. For `O=C(Nc1cnc(-c2cccc(Cl)c2)nc1)c1ccccc1F`, the Potency was inconclusive: 0.794 µM [inhibitor, full curve]. In the case of `CN1CCN(C(=O)c2nn(C)c3c2CCCC3)CC12CCNC(=O)CC2` (stereo not given), the Potency is reported as “inactive”. For `CN1CCN(Cc2nc(C3(O)CCN(CC4CCCCC4)CC3)cs2)CC1`, the Potency was active: 10 µM. In the case of `Fc1ccc(C2Cn3nnc(-c4nc(-c5ccncc5)no4)c3CO2)cc1` (stereo not given), the Potency is reported as “inactive”. With `O=C(O)C[C@@H]1CCN(C(=O)Nc2ccccc2)C[C@@H]1CCN1CCN(c2ccc(F)cc2)CC1` the Potency was “inactive”. For `CCn1cc(S(=O)(=O)c2cc(C)cc(C)c2)c(=O)c2cc(F)c(N3CCN(c4ccccc4)CC3)cc21`, the Potency was inconclusive: 11.2 µM [inhibitor, single point]. With `Cc1ccc2c(n1)N(C)[C@H](CO)CCN(CCC(C)C)C2` the Potency was inconclusive: 0.794 µM [inhibitor, full curve]. With `CNC(=O)N1CCC(Cc2nncn2C(C)C)C1` (stereo not given) the Potency was inconclusive: 1 µM [inhibitor, full curve, poor fit]. In the case of `Cc1cc(Cl)ccc1-c1ccc(CNC2CN(C(=O)OC(C)(C)C)C2)cc1`, the Potency is reported as inconclusive: 1 µM [inhibitor, full curve, poor fit]. In the case of `CCCn1cc(S(=O)(=O)N2C[C@H](C3CC3)[C@@H](N)C2)cn1`, the Potency is reported as inconclusive: 10 µM [inhibitor, partial curve]. With `CCc1nc2c(c(-c3ccc(O)cc3)n1)CCN(Cc1cccc(C(F)(F)F)c1)CC2` the Potency was inconclusive: 1.12 µM [inhibitor, partial curve, poor fit]. For `CCC(=O)N1Cc2ccccc2CC2(CCCN(C)C2)C1` (stereo not given), the Potency was inconclusive: 31.6 µM [inhibitor, single point]. For `OC[C@@H]1CN(C2CCSCC2)C[C@H]1c1nc(-c2cccnc2)no1`, the Potency was “inactive”. For `CCOc1ccc(-n2c(=O)c3c(C)c(C)sc3n(Cc3ccc(C(C)(C)C)cc3)c2=O)cc1`, the Potency was inconclusive: 10 µM [inhibitor, single point]. In the case of `COc1ccc(C(=O)Nc2ccc3c(N4CCCCC4)ncnc3c2)cc1`, the Potency is reported as “inactive”. For `COCCn1c(C)nnc1-c1cc(-c2cccc(N(C)C)c2)ccn1`, the Potency was inconclusive: 1.58 µM [inhibitor, partial curve, poor fit]. With `O=C(CCc1nnn2c1CN(C(=O)Nc1cccc(F)c1)CC2)NC1CC1` the Potency was “inactive”. For `CCCCn1cc(S(=O)(=O)c2ccccc2)c(=O)c2cc(F)c(N3CCC(C)CC3)cc21`, the Potency was inconclusive: 17.8 µM [inhibitor, single point]. With `CCOC(=O)c1cnc2c(C)cc(C)cc2c1Nc1ccc(OCc2ccccc2)cc1` the Potency was inconclusive: 10 µM [inhibitor, single point]. With `O=C(CC1CCCCC1)N1CCC(Cc2nc(-c3ccccc3)no2)CC1` the Potency was “inactive”. With `CC(=O)c1cc(CN(CCc2ccccc2)CC2CCCN(C)C2)cs1` (stereo not given) the Potency was active: 12.6 µM. For `COc1ccc(N2C(=O)CS(=O)(=O)C23C(=O)N(Cc2c(F)cccc2Cl)c2ccccc23)cc1` (stereo not given), the Potency was inconclusive: 12.6 µM [inhibitor, single point]. In the case of `Cc1ccc(CN2CCC3(CCNCC3)C2)c(O)c1`, the Potency is reported as inconclusive: 10 µM [inhibitor, single point]. In the case of `FC(F)(F)c1ccc(CN2CCCC3(CC(Cc4ccccc4)=NO3)C2)cc1` (stereo not given), the Potency is reported as “inactive”. In the case of `O=C1N[C@H](CC(=O)N2CCN(Cc3ccc4c(c3)OCO4)CC2)C(=O)Nc2ccccc21`, the Potency is reported as inconclusive: 20 µM [inhibitor, single point]. In the case of `CCc1ccc(NC(=O)C2CCN(S(=O)(=O)c3c(C)noc3/C=C\c3ccc(OC)cc3)CC2)cc1`, the Potency is reported as inconclusive: 5.01 µM [inhibitor, partial curve, poor fit]. In the case of `CC(=O)N1Cc2ccccc2CC2(CCCN(CCc3ccccc3)C2)C1` (stereo not given), the Potency is reported as inconclusive: 15.8 µM [inhibitor, single point]. With `COCCNC(=O)c1ccc(OC2CCN(Cc3cnc(SC)nc3)CC2)c(Cl)c1` the Potency was inconclusive: 2.24 µM [inhibitor, full curve, poor fit]. With `CCCN1C(CC(C)C)=NS(=O)(=O)c2cc(NC(=O)c3ccco3)ccc21` the Potency was inconclusive: 0.316 µM [inhibitor, full curve, poor fit]. In the case of `COCC1CN(C(=O)C2(c3ccc(OC)cc3)CC2)CC12CCOCC2` (stereo not given), the Potency is reported as “inactive”. With `O=C(c1ccccc1OCC1CCCN(Cc2ccncc2F)C1)N1CCCCC1` (stereo not given) the Potency was inconclusive: 1.58 µM [inhibitor, full curve, poor fit]. With `COCCc1noc([C@@H]2CC(F)(F)CN2C(=O)c2ccoc2)n1` the Potency was “inactive”. In the case of `COc1ccc(CNC(=O)[C@@H]2CCC[C@@H](NC(=O)C3CCOCC3)CN(C)C(=O)C2)cc1`, the Potency is reported as “inactive”. For `CC(C)(C)C(=O)N1CCC(n2c(=O)[nH]c3ccccc32)CC1`, the Potency was inconclusive: 15.8 µM [inhibitor, single point]. In the case of `CSc1ccc(NC(=O)Nc2cccc(-c3ccc(N4CCOCC4)nn3)c2)cc1`, the Potency is reported as inconclusive: 17.8 µM [inhibitor, single point]. In the case of `O=C(CN1C(=O)NC2(CCOCC2)C1=O)Nc1ccc(Cl)cc1`, the Potency is reported as inconclusive: 20 µM [inhibitor, partial curve, poor fit]. With `COc1ccc(NC(=O)c2c(C)nc3n2CCC(Nc2ccc(F)cc2)C3)cn1` (stereo not given) the Potency was inconclusive: 7.08 µM [inhibitor, partial curve, poor fit]. With `COc1ccccc1CNC(=O)c1ccc2c(c1)N(Cc1ccc(C)cc1)CCS2` the Potency was active: 10 µM. In the case of `CN1CCN(c2ccc(-c3cc4c(ccn4C)c(C(=O)NCCN4CCNC4=O)n3)cc2)CC1`, the Potency is reported as inconclusive: 17.8 µM [inhibitor, single point]. For `O=S(=O)(NCCc1nnc2ccc(SCc3c(F)cccc3Cl)nn12)c1ccccc1`, the Potency was inconclusive: 7.94 µM [inhibitor, partial curve, poor fit]. With `COC(=O)c1ccc(CN(Cc2ccc(OC)c(OC)c2)S(=O)(=O)c2cc(C(=O)Nc3cccc(C)c3)ccc2F)cc1` the Potency was inconclusive: 17.8 µM [inhibitor, single point]. With `Cc1ccccc1-c1onc(C)c1C(=O)NCc1ccc(F)cc1F` the Potency was inconclusive: 10 µM [inhibitor, single point]. With `CCC(C)C(=O)N1CCC2(CC1)NCCc1c2[nH]c2ccccc12` (stereo not given) the Potency was inconclusive: 7.94 µM [inhibitor, partial curve]. In the case of `O=C(Nc1ccc2c(N3CCCC3)ncnc2c1)c1cc(F)ccc1F`, the Potency is reported as active: 3.16 µM. With `COc1cc(NC(=O)Cn2ccn3nc4c(c3c2=O)CCCCC4)cc(OC)c1OC` the Potency was “inactive”. In the case of `CC1=C[C@@H](CNC(=O)CCCC(=O)O)[C@H](C(C)C)C[C@H]1Cc1nc2ccccc2n1C`, the Potency is reported as inconclusive: 12.6 µM [inhibitor, single point]. With `COCCC(=O)N1CCc2nnc([C@@H]3C[C@@H](O)CN3C(C)C)n2CC1` the Potency was “inactive”. In the case of `CN(C)C[C@@H]1CN(C2CCOCC2)C[C@H]1NC(=O)c1ccoc1`, the Potency is reported as “inactive”. For `COc1ccc(N2Cc3c(ncnc3N3CCN(Cc4ccccc4)CC3)N(C)CC2=O)cc1`, the Potency was inconclusive: 1.12 µM [inhibitor, full curve]. For `Cc1ccc(NC(=O)N2CC[C@H]3C(=O)NCCCCCN(Cc4cccnc4)[C@@H]3C2)cc1C`, the Potency was active: 8.91 µM. For `CC(C)Oc1ccc(CNC(=O)c2ccccc2NC(=O)c2nsc3ccccc23)cc1`, the Potency was “inactive”. For `CCc1nc2c(c(-c3ccc(Cl)cc3)n1)CN(C(=O)Cc1ccccn1)CC2`, the Potency was inconclusive: 7.94 µM [inhibitor, partial curve]. In the case of `COc1ccc(CN2CCc3nc(C(C)C)nc(-c4ccc(Cl)cc4)c3CC2)cc1`, the Potency is reported as inconclusive: 12.6 µM [inhibitor, single point]. In the case of `CCN1CCN(C(=O)c2c(C)nn(-c3ccc(F)cc3)c2-n2cccc2)CC1`, the Potency is reported as inconclusive: 0.158 µM [inhibitor, full curve]. In the case of `Cc1oc2c(c1C(=O)NCc1ccc3c(c1)OCO3)CN(Cc1ccc(F)cc1)CC2`, the Potency is reported as inconclusive: 17.8 µM [inhibitor, single point]. With `CC(C)CCNC(=O)c1cnc2n1CCN(Cc1ccc3c(c1)CCO3)CC2` the Potency was inconclusive: 10 µM [inhibitor, partial curve, poor fit].
